The campaign covered roughly 45,000 compounds. About 65 (0.1%) were called active. Calls follow the shape of the dose curve; as a rule, active = well fitted activation curve with a large enough effect; inconclusive = small, poorly fitted or top-dose-only effect; inactive = no such curve, though single readings can be large or run the other way. This is one part of the list.
These molecules were tested against Galactocerebrosidase (Homo sapiens) (UniProt P54803) (assay: A Novel Cell-Based Assay to Identify Small Molecules for B -Galactocerebrosidase). Settings: 145M-Twi-hGALC-G270D cells (Twitcher mouse brain line with human GALC G270D), HMU-beta-Gal fluorescence, 48 h; series mostly up to 57.5 µM; activation: at the top concentration.
Chain of UniProt P54803 (P54803 whole entry, looked up): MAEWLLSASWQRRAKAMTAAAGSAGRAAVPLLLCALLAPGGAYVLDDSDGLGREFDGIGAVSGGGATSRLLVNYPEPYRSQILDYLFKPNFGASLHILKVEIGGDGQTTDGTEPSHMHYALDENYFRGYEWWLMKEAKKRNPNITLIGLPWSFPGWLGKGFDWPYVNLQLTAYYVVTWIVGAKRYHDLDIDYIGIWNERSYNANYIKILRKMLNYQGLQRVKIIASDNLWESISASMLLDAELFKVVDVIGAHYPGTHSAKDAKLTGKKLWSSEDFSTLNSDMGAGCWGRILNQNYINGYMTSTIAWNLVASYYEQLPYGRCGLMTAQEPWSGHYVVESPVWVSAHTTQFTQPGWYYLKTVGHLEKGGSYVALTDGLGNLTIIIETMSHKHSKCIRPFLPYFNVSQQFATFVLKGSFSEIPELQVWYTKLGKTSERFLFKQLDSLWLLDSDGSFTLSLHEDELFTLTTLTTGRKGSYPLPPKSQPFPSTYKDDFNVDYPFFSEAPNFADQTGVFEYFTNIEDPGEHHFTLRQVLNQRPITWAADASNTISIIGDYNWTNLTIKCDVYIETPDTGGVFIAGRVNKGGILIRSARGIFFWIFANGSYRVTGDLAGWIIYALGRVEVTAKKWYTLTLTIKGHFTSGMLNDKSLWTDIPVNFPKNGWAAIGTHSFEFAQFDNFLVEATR
Outline: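 Fluorescence readout: HMU-β-gal cleavage by mutant GALC (0.1 mM final, citrate/phosphate pH 5.2 with 1 mg/mL taurocholate), stopped with carbonate/bicarbonate plus Triton X-100. Cells: murine Twitcher 145M-Twi expressing human G270D GALC; qHTS for activators.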
Also: 0% is about no effect; nearly all actives have a fitted effect of over 65% in size.

activation, inactive:
COc1cccc(-c2cn3c(n2)sc2cc(C(=O)NC4CCCCCC4)ccc23)c1 -7.84%
O=C(Cc1ccc(F)cc1)NC1CC(=O)N(c2ccc3c(c2)OCCO3)C1 (configuration not stated) 11.8%
O=C(Cn1ncc2c3ccccc3n(Cc3ccc(Cl)cc3)c2c1=O)N1CCCCCC1 -9.96%
COc1ccc(Br)cc1CNC(=O)Cn1c(=O)c2cccn2c2ccc(F)cc21 1.45%
Clc1ccccc1N1CCN(c2ncnc3c2c(-c2ccccc2)cn3-c2ccccc2)CC1 -20.2%
CCN(CC)c1nn2c(=O)c(C(=O)NCc3ccc(OC)cc3OC)cnc2s1 -10.6%
CC(=O)N1c2ccc(S(=O)(=O)NCC3CCC(C(=O)NC(C)(C)C)CC3)cc2CC1C (configuration not stated) -17.3%
Cc1ccc(S(=O)(=O)N(CC(=O)Nc2ccc(C(C)C)cc2)Cc2ccccc2)cc1 -2.01%
Cc1ccccc1NC(=O)CCC(=O)N1CCSc2ccccc21 -3.16%
O=C(NCC(c1cccs1)S(=O)(=O)c1cccs1)c1ccccc1F (configuration not stated) -6.89%
O=C(Nc1ccc2c(c1)CCCN2C(=O)c1cccs1)c1cccc(C(F)(F)F)c1 4.92%
COc1ccccc1CNC(=O)c1ccccc1NC(=O)c1nsc2ccccc12 -14%
CCOC(=O)c1[nH]c2ccccc2c1NC(=O)c1ccccc1OCC -3.54%
Cc1ccc(-n2nc3ccc(NC(=O)c4oc5ccccc5c4C)cc3n2)cc1 -4.11%
Cc1cccc(N2CCN(C(=O)c3cc(S(=O)(=O)N4CCC(C)CC4)cn3C)CC2)c1C -16.2%
CC(C)(C)OC(=O)N1CCC(c2c(C(=O)NCCN3CCC(Cc4ccccc4)CC3)cnn2-c2cccc(Cl)c2)CC1 5.82%
CCN(C(=O)c1noc2c1COc1ccc(C)cc1-2)c1cccc(C)c1 -3.54%
O=C(Nc1ccccc1F)c1nc(S(=O)(=O)Cc2ccccc2F)ncc1Cl -3.62%
CCOc1ccc(-c2nnc(SCC(=O)NC3CCCC3)nc2-c2ccc(OCC)c(OC)c2)cc1OC -17.3%
Clc1cccc(-n2ncc3c(NC4CCCCC4)ncnc32)c1 -5.86%
CCOc1ccc(CCNC(=O)C2CCN(c3ncnc4c3nc3n4CCCCC3)CC2)cc1 -21.6%
CCOC(=O)C1CCN(C(=O)c2cc3ccc4cccnc4c3[nH]2)CC1 -11.4%
O=C(NCc1ccc(Cl)cc1)C(=O)NCC(c1cccs1)S(=O)(=O)c1ccc(Cl)cc1 (configuration not stated) -6.83%
O=C(NCCCN1CCN(c2ccccc2)CC1)c1nnc(Cc2c(F)cccc2Cl)o1 -0.775%
CCCNC(=O)c1ccc2c(c1)N=C(C)c1c(C)ccc(C)c1S2 -5.36%
Cc1nc2c(c(C)c1CCC(=O)N1CCN(c3ccccc3)CC1)c(=O)n(C)c(=O)n2C 1.86%
COc1ccc(C2C=C(c3ccccc3)Nc3nc(NS(=O)(=O)c4ccccc4)nn32)cc1 (configuration not stated) 0.612%
Cc1cc(C)c(S(=O)(=O)Nc2ccc3oc4c(c3c2)CCCC4)cc1C -16.2%
COCCCNC(=O)c1ccc(CSc2nc3cccnc3n2Cc2ccc(OC)cc2)cc1 -12.5%
CCOC(=O)c1ccccc1NC(=O)CSc1c(C)cnc2c1c(=O)n(C)c(=O)n2C -14.1%
CC(CNC(=O)CCn1c(=O)c2cccn2c2ccc(F)cc21)c1ccccc1 (configuration not stated) -14.2%
Cc1ccc(C)c(Cn2c(=O)n(-c3ccc(Cl)cc3)c(=O)c3c4c(sc32)CCC4)c1 6.45%
O=C(CCNNC(=O)c1ccncc1)NCc1ccccc1 -11.1%
O=C(Nc1cccc(Cl)c1Cl)c1cc(S(=O)(=O)N2CCCCC2)ccc1F -1.17%
COc1cccc(NC(=O)c2c(-c3ccc(C)cc3)nnc3ccccc23)c1 -8.4%
COc1ccc(CCNC(=O)C2CC(=O)N(CCc3ccccc3)C2)cc1OC (configuration not stated) -6.8%
CCCN(Cc1cccs1)C(=O)Nc1cc(C)ccc1OC -10.2%
O=C(c1ccc2c(c1)N(Cc1ccc(Cl)cc1)C(=O)c1ccccc1S2(=O)=O)N1CCCCCC1 -2.85%
COc1ccc(OC)c(CNC(=O)C2CCN(S(=O)(=O)N3CCCCC3)CC2)c1 -8.46%
CCc1nn(CC(=O)Nc2ccc(C)c(F)c2)c(=O)c2cc3cc(C)ccc3n12 -1.7%
Cc1ccc(-c2onc(C)c2C)cc1S(=O)(=O)NCc1cccs1 1.19%
COc1ccccc1N1CCN(c2nc3ccc(C(=O)c4ccccc4)cc3n3c(C)nnc23)CC1 -13.8%
CCCCN1CC(c2nc3ccccc3n2CCCCOc2ccccc2C)CC1=O (configuration not stated) -32.2%
COc1ccc(OC)c(S(=O)(=O)NCCc2sc(-c3cccnc3)nc2C)c1 -7.25%
CC(=O)OC1=CN(Cc2ccccc2)S(=O)(=O)c2ccccc21 -11.1%
Cc1ccc(N2C(=O)C(CC(=O)Nc3ccc(F)cc3)N(CCC3=CCCCC3)C2=O)cc1 (configuration not stated) -22.8%
CCOc1ccc(-c2nnc(SCC(=O)Nc3ccccc3C(F)(F)F)o2)cc1 -1.37%
Cc1cccc(C)c1NC(=O)c1cc(S(N)(=O)=O)c(Cl)cc1O -8.99%
CCOc1ccc(S(=O)(=O)NCC(c2ccc(N(C)C)cc2)N2CCCC2)cc1 (configuration not stated) -22.5%
Cc1ccc(-c2cn3c(n2)sc2cc(C(=O)NCCC4=CCCCC4)ccc23)c(C)c1 -12.1%
COc1ccccc1N1CCN(C2C(=O)c3ccccc3N2C(C)=O)CC1 (configuration not stated) -3.1%
O=C(COc1ccc(F)cc1)Nc1ccc2nc(SCC(=O)N3CCCC3)sc2c1 -2.7%
COc1cc(OC)c(NS(=O)(=O)c2cc3c(cc2C)NC(=O)CO3)cc1Cl -12.5%
CC(=O)c1ccc(N2CCN(C(=O)C3CCN(S(=O)(=O)c4ccc(Br)s4)CC3)CC2)cc1 -15.2%
COCCn1c(CNC(=O)c2cccc(N(C)C)c2)nc2cccnc21 2.98%
CCOc1ccc(OCC)c(NC(=O)c2nnn(Cc3cc(Br)ccc3OC)c2N)c1 -9.5%
COCCCNC(=O)c1cn(CC(C)C)c(=O)c2c1c1ccccc1n2C 10.5%
CCN(Cc1ccccc1)C(=O)CCS(=O)(=O)c1cc2c(cc1Cl)NC(=O)CO2 -11.2%
Cc1ccc(NC(=O)c2nc(S(C)(=O)=O)ncc2N(Cc2ccco2)Cc2ccccc2F)c(C)c1 -18.6%
Cc1ccc(CCNC(=O)c2ccc3c(=O)n(-c4ccc(C)cc4)c(=O)[nH]c3c2)cc1 -12.4%
Cc1ccccc1S(=O)Cc1ccc(C(=O)NC2CCCCCC2)o1 (configuration not stated) -4.51%
CCOc1cccc2sc(NC(=O)c3ccc(S(=O)(=O)N4CCCc5ccccc54)cc3)nc12 -8.32%
